Hit rate of the full screen: of about 310,000 compounds, about 2,200 (0.71%) showed an effect of 50% or more. The effect is printed as a negative number. The list shows a part of the results.
biological target: human ether-à-go-go-related gene (hERG) potassium channel (human, UniProt Q12809); experiment: primary screen, population patch clamp on CHO cells stably expressing hERG
Sequence (Q12809 whole entry, looked up): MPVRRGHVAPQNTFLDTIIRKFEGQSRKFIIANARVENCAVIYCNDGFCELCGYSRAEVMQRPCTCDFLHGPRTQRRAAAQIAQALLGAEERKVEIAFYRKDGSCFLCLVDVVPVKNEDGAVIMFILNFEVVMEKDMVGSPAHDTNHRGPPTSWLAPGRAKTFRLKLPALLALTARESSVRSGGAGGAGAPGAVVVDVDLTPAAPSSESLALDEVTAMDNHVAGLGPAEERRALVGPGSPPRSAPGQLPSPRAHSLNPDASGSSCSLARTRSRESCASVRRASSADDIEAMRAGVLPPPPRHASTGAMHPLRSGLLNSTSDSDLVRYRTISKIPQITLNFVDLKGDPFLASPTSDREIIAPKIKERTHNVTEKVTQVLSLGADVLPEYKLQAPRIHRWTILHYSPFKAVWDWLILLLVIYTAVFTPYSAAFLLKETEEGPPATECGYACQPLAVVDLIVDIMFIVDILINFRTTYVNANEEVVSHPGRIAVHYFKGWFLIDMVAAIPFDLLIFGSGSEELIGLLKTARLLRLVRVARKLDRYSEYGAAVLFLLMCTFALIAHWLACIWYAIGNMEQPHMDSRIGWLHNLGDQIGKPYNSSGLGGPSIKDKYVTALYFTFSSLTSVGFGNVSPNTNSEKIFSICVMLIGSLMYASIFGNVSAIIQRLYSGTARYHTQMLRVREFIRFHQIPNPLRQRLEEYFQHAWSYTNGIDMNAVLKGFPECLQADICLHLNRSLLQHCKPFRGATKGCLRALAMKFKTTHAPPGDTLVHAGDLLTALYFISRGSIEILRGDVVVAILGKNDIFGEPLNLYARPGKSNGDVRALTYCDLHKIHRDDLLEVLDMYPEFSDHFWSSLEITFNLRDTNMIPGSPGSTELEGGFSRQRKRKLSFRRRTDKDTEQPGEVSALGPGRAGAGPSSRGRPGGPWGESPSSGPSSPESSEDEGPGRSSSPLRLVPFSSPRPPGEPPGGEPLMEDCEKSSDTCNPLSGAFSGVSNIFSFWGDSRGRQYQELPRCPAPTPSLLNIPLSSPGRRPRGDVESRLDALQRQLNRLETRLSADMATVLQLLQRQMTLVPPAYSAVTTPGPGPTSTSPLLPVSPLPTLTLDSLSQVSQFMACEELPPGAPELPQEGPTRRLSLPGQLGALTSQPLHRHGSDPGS

SMILES	hERG current change (%, negative = inhibition) at 1uM [%]
Cc1ccc(S(=O)(=O)N(C)CC(=O)Nc2cccc(C)n2)cc1	14.6
COC(=O)c1ccccc1S(=O)(=O)N1CCCC(c2nc3c(nnn3Cc3ccc(C)cc3)c(=O)[nH]2)C1 (stereo not drawn)	6.86
CCn1c(SCC(=O)Nc2ccc(Cl)cc2)nnc1C1CC1	-11.5
Cc1ccc(C(=O)NCc2ccc3c(c2)OCO3)o1	18.5
O=S(=O)(Nc1cccc2cn[nH]c12)c1ccc(F)cc1	11.6
CSCC(=O)N1CCCC(CO)(CCCc2ccccc2)C1 (stereo not drawn)	8.09
O=C(O/N=C(/c1ccccc1)c1ccncc1)c1ccccc1[N+](=O)[O-]	14.6
Cc1ccc2oc(C(=O)N3CCN(CC(=O)NC(C)C)CC3)c(C)c2c1	1.34
CC(=O)Oc1c(C)c(OC(C)=O)c2c(c1C(C)=O)OC1CC(=O)C(C(C)=O)=C(O)C21C (stereo not drawn)	12
CCn1c(CNC(=O)c2ccccc2F)nnc1SCC(=O)NC1CCCCC1C (stereo not drawn)	30.8
CC1CC=C2C(C#N)=C(N)C(C#N)(C#N)C(c3cccs3)C2C1 (stereo not drawn)	7.96
N#Cc1c2c(c(=S)n(-c3ccccc3)c1N)CCCC2	13.2
COc1ccc(C2=NO[C@@H]3C(=O)N(c4ccc5c(c4)OCCO5)C(=O)[C@H]23)cc1OC	5.54
O=C(CCNC(=O)c1ccc(Cl)cc1)Nc1cccc(S(=O)(=O)N2CCCCC2)c1	-6.25
COC(=O)C1=C(C)N=C2SC(C#N)=C(N)N2C1c1ccc(OC)cc1 (stereo not drawn)	1.33
Cc1occc1C(=O)N1CCN(C(c2ccccc2)c2ccccc2)CC1	2.32
CS(=O)(=O)N1CCN(c2ccccc2NC(=O)c2ccc(Br)o2)CC1	0.558
COCCOc1ccc(C(F)(F)F)cc1N	14.1
C#CCSc1nnc(-c2ccc(O)cc2)o1	10.4
CC(=O)c1cccc(NC(=O)c2cnn(-c3ccccc3)c2C)c1	6.14
CCC(=O)/C(=C(/O)c1ccccc1)c1nc2ccccc2[nH]1	16.6
C/C(=N\Nc1ccccc1C(=O)O)c1ccncc1	9.2
Cc1cc(C)c(C)c(OCC(=O)O/N=C(\N)c2ccccn2)c1	4.17

SMILES	hERG current change (%, negative = inhibition) at 1uM [%]
N#CCSCC(=O)Nc1ccc(Cl)cc1	6.31
O=C(N/N=C\c1cccnc1)c1ccc(Br)s1	11.9
Cc1nnc(SCc2nc3sc4c(c3c(=O)[nH]2)CCCC4)[nH]c1=O	1.76
OC(CSc1ccccc1Cl)CN1CCN(c2ccc(F)cc2)CC1 (stereo not drawn)	-11.2
COc1ccc(NC2=NCCCS2)cc1OC	11.5
CC(C)n1c(=S)[nH]c2cc(Cl)ccc21	18.2
O=C(/C(Br)=C/Nc1cc(Cl)ccc1Cl)C(F)(F)F	-12.2
COc1ccccc1CCNC(=O)C(=O)NCC1OCCN1S(=O)(=O)c1ccc(F)cc1 (stereo not drawn)	3.37
O=C(NCc1ccncc1)c1cccc(S(=O)(=O)Nc2ccc(SC(F)F)cc2)c1	14.6
Cc1ccc(C(=O)O)cc1S(=O)(=O)N1CCC(C(=O)O)CC1	0.0851
COc1cc(C(c2nnnn2C2CCCC2)N2CCc3ccccc3C2)ccc1O.Cl (stereo not drawn)	-4.53
O=C(Cn1cc(Cl)c([N+](=O)[O-])n1)NCCC1=CCCCC1	19.9
COc1ccc(N2CC(O)=C(c3nc(-c4ccc(Cl)cc4)cs3)C2=N)cc1	14.5
CNC(=O)C1CC(=O)N(CCc2ccccc2)C(=Nc2ccc(OC)cc2)S1 (stereo not drawn)	8.93
CCOC(=O)N1CCN(S(=O)(=O)c2cc(OCC)ccc2OCC)CC1	11
CC(C)CNC(=O)C1CCN(S(=O)(=O)c2ccc(-n3cnnn3)cc2)CC1	-15.5
COc1ccc(S(=O)(=O)N2CCC(C(=O)NCCN3CCOCC3)CC2)cc1	13.1
CCc1cc2cc3c(cc2nc1SCC(=O)OC(C)C)OCO3	9.59
NC(=O)c1cnn2c(C(F)(F)F)cc(-c3ccccc3)nc12	-2.43
O=C(N1CCOCC1)n1cnc2ccccc21	7.66
O=C(c1ccc([N+](=O)[O-])cc1Cl)N1CCN(c2ccccn2)CC1	3.75
Nc1nonc1-n1nnc(C(=O)N/N=C/c2ccc(OCc3ccccc3)cc2)c1CN1CCCCC1	17.8
CCCC(=O)NCCc1nc2cc([N+](=O)[O-])ccc2n1C	14.4

SMILES	hERG current change (%, negative = inhibition) at 1uM [%]
O=c1[nH]ncc(N/N=C\c2ccncc2)c1Cl	10.2
Cn1c(=O)c(=O)n(C)c2cc(S(=O)(=O)N3CC(=O)N(CCc4ccccc4)C(=O)C3)ccc21	17.6
COc1cccc(NP(=O)(Oc2ccc(Cl)cc2)Oc2ccc(Cl)cc2)c1	2.61
CCOC(=O)Nc1ccc2c(c1)N(C(=O)CCN1CCN3CCCC3C1)c1ccccc1CC2.Cl.O (stereo not drawn)	10.9
Cc1n[nH]c(C)c1CCCCOc1ccccc1F	8.91
CC(C)(C)OC(=O)NCCC(=O)N/N=C/c1cccc2nccnc12	2.42
O=C(CN1C(=O)c2ccccc2C1=O)Nc1cccc2cccnc12	7.27
COc1ccc(C(=O)COC(=O)CN2CC(=O)Oc3ccccc32)cc1Br	15
COC(=O)CCN(C(=O)c1ccc([N+](=O)[O-])cc1)c1ccccn1	12.1
CCOC(=O)N1CCN(c2ccc(C(=O)c3ccccc3)cc2F)CC1	0.783
CCc1cc(Cn2nc(-c3ccccc3)cc2C(=O)NCc2cccc(C(F)(F)F)c2)on1	16.1
Cc1ccc(NC(=O)CN(C)S(=O)(=O)c2cccc3nsnc23)cc1	2.47
CC(CCc1ccccc1)NC(=O)CN1CCOc2ccccc21 (stereo not drawn)	1.75
CC(OC(=O)/C=C/c1cccs1)C(=O)Nc1ccc(S(N)(=O)=O)cc1 (stereo not drawn)	3.24
Cc1nc2ccccn2c1C(=O)NN	4.1
c1ccc(C(NCCNC(c2ccccc2)c2ccccc2)c2ccccc2)cc1	12.6
CNc1ccc(/C=C2\COc3ccccc3C2=O)cc1[N+](=O)[O-]	5.43
CC(=O)N1CCc2c(sc(NC(=O)CCS(=O)(=O)c3ccc(C)cc3)c2C(N)=O)C1	10.3
O=C1OC2(c3ccccc3)C3CCCC2C13	11.8
COCc1cc(C)nc(SCC[N+](C)(C)CC(=O)c2ccc(Br)cc2)c1C#N.[Br-]	8.71
Br.Cn1c(=N)n(CC(=O)c2ccc(Br)cc2)c2ccccc21	-2.79
O=C1OC(c2ccccc2)=N/C1=C\N1CCCCC1	11
O=C(NCCc1c[nH]c2ccccc12)c1cc(S(=O)(=O)N2CCCCC2)ccc1N1CCOCC1	4.14

SMILES	hERG current change (%, negative = inhibition) at 1uM [%]
Cc1ccccc1CS(=O)(=O)c1ccc(C(=O)N2CCOCC2)cc1[N+](=O)[O-]	-11
Cc1ccc(-c2nn(CC(=O)N3CCOCC3)c(=O)c3ccccc23)cc1S(=O)(=O)N(C)C	4.03
COc1cc(C2SCC(=O)Nc3c2c(=O)[nH]n3C2CCCCCC2)cc(OC)c1OC (stereo not drawn)	1.79
O=c1c2[nH]c3ccc(F)cc3c2ncn1CC1CCCO1 (stereo not drawn)	4.81
Fc1ccc(NC(=S)N2CCc3ccccc3C2)c(F)c1	8.56
Br.N=c1scc(-c2ccccc2)n1/N=C/c1ccco1	13.4
CC(C)(C)OC(=O)NNC(=O)c1ccc(Cl)cc1	8.45
CCc1nnc(NC(=O)c2ccc(S(=O)(=O)N(C)c3ccccc3)cc2)o1	-8.63
COc1cc(/C=N/N2C(=O)CSC2=S)ccc1O	4.32
O=C(Nc1nc2c(s1)CCc1ccccc1-2)c1cccs1	-0.438
O=NN(CCCl)C(=O)NCCCl	13.5
CC1=C(C/C=C(\C)CCC[C@H](C)CCC[C@H](C)CCCC(C)C)C(=O)c2ccccc2C1=O	10.2
CC(C)C(=O)Nc1cccc(S(=O)(=O)c2cccc(NC(=O)C(C)C)c2)c1	19.5
O=C(Cn1nnc(-c2ccccc2-n2cnnn2)n1)NCc1ccccc1	6.77
COc1ccccc1C(CCNCc1ccccc1)c1ccc(OC(C)C)cc1 (stereo not drawn)	8.66
CCOc1cc(Cl)c(NC(=O)CC)cc1OCC	14.5
Cc1cccc(NC(=O)c2ccccc2OCC(=O)N2CCOCC2)c1C	8.12
O=C(NC(=S)Nc1nc2c(s1)CCCC2)c1ccccc1	16.6
COC(=O)c1c(NC(=O)C(C)(C)C)csc1C	12.7
CCCCC(CC)CNC(=O)CN1C(=O)NC2(CCc3ccccc32)C1=O (stereo not drawn)	11.5
Cc1cc(C)cc(C(=O)N2CC(C)OC(C)C2)c1 (stereo not drawn)	6.6

Source: paper PMC4336329 (PLoS ONE, 2015)
